According to paper PMC4336329 (PLoS ONE, 2015):
Screen size: about 310,000 compounds; about 2,200 (0.71%) showed an effect of 50% or more. Effects have a minus sign here. The list shows a part of the results.

These compounds were tested against human ether-à-go-go-related gene (hERG) potassium channel (human, UniProt Q12809) (assay: primary screen, population patch clamp on CHO cells stably expressing hERG).
Sequence of human ether-à-go-go-related gene (hERG) potassium channel (Q12809 whole entry, looked up): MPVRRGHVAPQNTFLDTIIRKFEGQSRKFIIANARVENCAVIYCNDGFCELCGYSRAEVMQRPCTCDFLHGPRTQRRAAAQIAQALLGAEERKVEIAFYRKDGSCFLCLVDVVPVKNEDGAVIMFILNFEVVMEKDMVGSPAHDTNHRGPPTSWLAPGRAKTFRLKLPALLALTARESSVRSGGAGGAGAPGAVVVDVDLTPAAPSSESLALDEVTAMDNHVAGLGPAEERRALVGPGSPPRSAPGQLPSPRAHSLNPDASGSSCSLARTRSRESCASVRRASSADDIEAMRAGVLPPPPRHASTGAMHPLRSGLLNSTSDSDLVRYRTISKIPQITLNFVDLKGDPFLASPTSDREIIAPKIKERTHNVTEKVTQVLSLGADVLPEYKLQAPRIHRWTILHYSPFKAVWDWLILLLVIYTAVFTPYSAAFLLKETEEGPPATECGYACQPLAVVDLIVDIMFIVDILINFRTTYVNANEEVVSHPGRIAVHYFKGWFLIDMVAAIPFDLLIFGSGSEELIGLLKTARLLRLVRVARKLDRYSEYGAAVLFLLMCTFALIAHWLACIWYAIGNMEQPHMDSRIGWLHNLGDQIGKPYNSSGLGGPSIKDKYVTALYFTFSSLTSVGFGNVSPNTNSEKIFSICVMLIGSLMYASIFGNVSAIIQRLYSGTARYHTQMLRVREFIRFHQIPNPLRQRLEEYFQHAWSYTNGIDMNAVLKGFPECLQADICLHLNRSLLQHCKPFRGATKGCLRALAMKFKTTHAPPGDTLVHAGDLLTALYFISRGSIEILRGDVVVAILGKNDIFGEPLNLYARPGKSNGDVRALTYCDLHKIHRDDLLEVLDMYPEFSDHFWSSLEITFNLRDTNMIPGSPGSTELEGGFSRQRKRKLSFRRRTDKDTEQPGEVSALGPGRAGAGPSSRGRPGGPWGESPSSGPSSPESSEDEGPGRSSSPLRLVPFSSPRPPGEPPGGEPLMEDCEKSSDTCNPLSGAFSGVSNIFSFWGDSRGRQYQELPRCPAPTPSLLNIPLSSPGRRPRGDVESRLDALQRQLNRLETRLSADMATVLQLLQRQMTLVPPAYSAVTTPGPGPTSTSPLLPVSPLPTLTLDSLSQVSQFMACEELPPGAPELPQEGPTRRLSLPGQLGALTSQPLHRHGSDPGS
In the case of `CCOc1ccc(CC(C(=O)NN)C(=O)NN)cc1CN(C)C`, the “hERG current change (%, negative = inhibition) at 1uM” value is reported as 10.4%.
`Cc1cc(NC(=O)COC(=O)c2n[nH]c3ccccc23)no1` was tested, and the “hERG current change (%, negative = inhibition) at 1uM” value was 14.4%.
`CCN1C(=O)/C(=C\N(C(C)=O)c2ccccc2)OC1=S` was tested, and the “hERG current change (%, negative = inhibition) at 1uM” value was 9.47%.
With `Cc1cc(-c2ccc(C)c(S(=O)(=O)NCc3cccc(Br)c3)c2)on1` the “hERG current change (%, negative = inhibition) at 1uM” value was -0.583%.
With `COC(=O)c1ccccc1Sc1c(/C=N/OCc2ccc(Cl)cc2)c(C(F)(F)F)nn1C` the “hERG current change (%, negative = inhibition) at 1uM” value was 8.8%.
`O=C(O)CSCC(=O)N1N=C2/C(=C/c3ccccc3)CCCC2C1c1ccccc1` (stereo not shown) was tested, and the “hERG current change (%, negative = inhibition) at 1uM” value was 17.3%.
With `CCC(C)c1ccccc1NC(=S)NC(=O)c1ccco1` (stereo not shown) the “hERG current change (%, negative = inhibition) at 1uM” value was 2.7%.
For `O=C(O)/C=C/C(=O)Nc1ccc(OC(F)(F)Cl)cc1`, the “hERG current change (%, negative = inhibition) at 1uM” value was 9.4%.
`CC1(c2ccc(OC(F)F)cc2)NC(=O)N(CC(=O)Nc2ccc3[nH]c(=O)[nH]c3c2)C1=O` (stereo not shown) was tested, and the “hERG current change (%, negative = inhibition) at 1uM” value was 16.3%.
For `O=[N+]([O-])c1cc(/C=N/Nc2nc3ccccc3[nH]2)c(O)cc1O`, the “hERG current change (%, negative = inhibition) at 1uM” value was 14.2%.
For `Cc1ccc(CN(C)C(=O)CN2C(=O)NC(c3ccccc3)(c3ccccc3)C2=O)c(C)c1`, the “hERG current change (%, negative = inhibition) at 1uM” value was 2.39%.
With `COC(=O)c1cc(=O)[nH]c(SCc2cccc(C)c2)n1` the “hERG current change (%, negative = inhibition) at 1uM” value was 16%.
For `Cc1nc(NC(=O)CSc2nnnn2Cc2ccccc2)sc1C`, the “hERG current change (%, negative = inhibition) at 1uM” value was 9.78%.
`O=C(NNC1=NCCC1)c1cccc(S(=O)(=O)N2CCCC2)c1` was tested, and the “hERG current change (%, negative = inhibition) at 1uM” value was 19.3%.
For `COc1cccc(C(C(=O)NCc2ccco2)N(C(=O)Cn2nnc3ccccc32)C2CC2)c1OC` (stereo not shown), the “hERG current change (%, negative = inhibition) at 1uM” value was -4.4%.
For `O=C(CSc1nc2ccccc2o1)Nc1ccccc1`, the “hERG current change (%, negative = inhibition) at 1uM” value was -0.112%.
With `COc1ccc(/C=C2\SC(N)=NC2=O)cc1Cl` the “hERG current change (%, negative = inhibition) at 1uM” value was 13.2%.
`CC(=O)/C(N)=N/Nc1cccc(Cl)c1` was tested, and the “hERG current change (%, negative = inhibition) at 1uM” value was 14.4%.
With `Cc1cc(=O)c2n(Cc3ccccc3Cl)nc[n+]2[nH]1.[Cl-]` the “hERG current change (%, negative = inhibition) at 1uM” value was -1.53%.
For `COc1cc(OC)cc(C(=O)NC(c2ccccc2)c2ccccc2)c1`, the “hERG current change (%, negative = inhibition) at 1uM” value was 13.9%.
In the case of `COc1ccc(C(=O)Nc2nc(-c3cccs3)cs2)cc1`, the “hERG current change (%, negative = inhibition) at 1uM” value is reported as -0.646%.
With `Cc1ccc(C(=O)n2cnnc2N)cc1` the “hERG current change (%, negative = inhibition) at 1uM” value was 3.04%.
For `O=C(NC(=S)Nc1ccccc1N1CCCCC1)c1ccco1`, the “hERG current change (%, negative = inhibition) at 1uM” value was -3.12%.
`O=C(CCNC(=O)c1ccc([N+](=O)[O-])cc1)Nc1ccccc1N1CCCCC1` was tested, and the “hERG current change (%, negative = inhibition) at 1uM” value was -7.61%.
With `CN(CCCNC(=O)C1CCC(=O)N1Cc1ccccc1Cl)c1ccccc1` (stereo not shown) the “hERG current change (%, negative = inhibition) at 1uM” value was 19.2%.
In the case of `CC(C)C/C(=N/O)c1cn(C)c2ccccc12`, the “hERG current change (%, negative = inhibition) at 1uM” value is reported as 13.3%.
`Cc1ccc2nc(C)c(C(=O)N/N=C/c3cccs3)n2c1` was tested, and the “hERG current change (%, negative = inhibition) at 1uM” value was 11.9%.
With `Cc1ccc(Cl)cc1N1CCN(Cc2nc3c(c(=O)[nH]c(=O)n3C)n2CCc2ccccc2)CC1` the “hERG current change (%, negative = inhibition) at 1uM” value was 11.1%.
For `Cc1[nH]c2ccc(CNS(=O)(=O)c3ccc(S(=O)(=O)N4CCOCC4)cc3)cc2c1C`, the “hERG current change (%, negative = inhibition) at 1uM” value was 4.76%.
`COC(=O)c1cc(C(=O)N2CCN(c3cccc(Cl)c3)CC2)cc([N+](=O)[O-])c1` was tested, and the “hERG current change (%, negative = inhibition) at 1uM” value was -16.3%.
In the case of `Cc1ccc(S(=O)(=O)NCC(C)NS(=O)(=O)c2ccccc2[N+](=O)[O-])cc1` (stereo not shown), the “hERG current change (%, negative = inhibition) at 1uM” value is reported as 15.4%.
For `Cc1c(N2C(=O)c3ccccc3C2(O)c2ccccc2)c(=O)n(-c2ccccc2)n1C` (stereo not shown), the “hERG current change (%, negative = inhibition) at 1uM” value was 11.3%.
For `C[C@H]1CC[C@@H]2N(C1)C[C@H]1[C@@H]3C[C@H]4[C@@H](CC(=O)[C@H]5C[C@@H](O)CC[C@@]54C)[C@@H]3CC[C@H]1[C@]2(C)O.Cl`, the “hERG current change (%, negative = inhibition) at 1uM” value was 13.8%.
`Cc1cccnc1NC(=O)CNC(=O)COc1ccccc1` was tested, and the “hERG current change (%, negative = inhibition) at 1uM” value was 5.14%.
In the case of `COc1ccccc1CNS(=O)(=O)c1cccc2nsnc12`, the “hERG current change (%, negative = inhibition) at 1uM” value is reported as 11.9%.
With `CC(=O)Nc1ccc(S(=O)(=O)NC2(C(F)(F)F)NC(=O)N(c3ccccc3F)C2=O)cc1` (stereo not shown) the “hERG current change (%, negative = inhibition) at 1uM” value was 19.3%.
`COC(=O)c1cccc(C23CC4(C2)[C@H](CN(Cc2cccnc2)[C@@H]4c2ccccc2)C3c2ccc(C(F)(F)F)cc2)c1` (stereo partly shown) was tested, and the “hERG current change (%, negative = inhibition) at 1uM” value was 8.87%.
With `CC(C(=O)NC1CCCCC1)N1C(=O)c2cccc3cccc1c23` (stereo not shown) the “hERG current change (%, negative = inhibition) at 1uM” value was 2.17%.
With `CSCc1c(C(=O)NCCc2ccccn2)oc2ccccc12` the “hERG current change (%, negative = inhibition) at 1uM” value was 5.17%.
In the case of `Cc1ccccc1NS(=O)(=O)c1nnc(NC(=O)CC(C)C)s1`, the “hERG current change (%, negative = inhibition) at 1uM” value is reported as 14.6%.
In the case of `O=C(OCC(=O)c1cccc2ccccc12)c1ccc(CO)cc1`, the “hERG current change (%, negative = inhibition) at 1uM” value is reported as 2.51%.
With `COc1cc(C=O)c(-c2c(C=O)cc(OC)c3c2OCO3)c2c1OCO2` the “hERG current change (%, negative = inhibition) at 1uM” value was 15.3%.
With `Cc1cc(=O)[nH]c(SCc2csc(-c3ccccc3)n2)n1` the “hERG current change (%, negative = inhibition) at 1uM” value was 9.7%.
In the case of `Cc1ccc(CN2CCN(/N=C/c3cccnc3)CC2)c(C)c1`, the “hERG current change (%, negative = inhibition) at 1uM” value is reported as -18.2%.
For `CCN(CC(=O)NCc1cccs1)C(=O)c1cccc(S(=O)(=O)N2CCc3ccccc32)c1`, the “hERG current change (%, negative = inhibition) at 1uM” value was -13.9%.
For `COc1cc(C2C(C#N)=C(N)Oc3n[nH]c(-c4cccs4)c32)cc(OC)c1O` (stereo not shown), the “hERG current change (%, negative = inhibition) at 1uM” value was 9.64%.
In the case of `CC(C)CN(C(=O)CSc1ncnc2sccc12)C1CCS(=O)(=O)C1` (stereo not shown), the “hERG current change (%, negative = inhibition) at 1uM” value is reported as -3.06%.
For `Cn1ccnc1P(=S)(c1nccn1C)N1CCOCC1`, the “hERG current change (%, negative = inhibition) at 1uM” value was 8.99%.
`CC1CCN(c2nc(N3CCCCC3)nc(N3CCCCC3)n2)CC1` was tested, and the “hERG current change (%, negative = inhibition) at 1uM” value was 10.7%.
With `Cc1cccc(C)c1OCC(O)CNC(C)c1ccccc1.Cl` (stereo not shown) the “hERG current change (%, negative = inhibition) at 1uM” value was 9.96%.
With `CCc1c(C)nc2ncnn2c1N1CCCC(C(=O)NCc2ccco2)C1` (stereo not shown) the “hERG current change (%, negative = inhibition) at 1uM” value was -21.1%.
For `Cl.O=C(c1ccco1)N1CCN(CCOCCOc2cccc3ccccc23)CC1`, the “hERG current change (%, negative = inhibition) at 1uM” value was -26.2%.
`Cc1ccc(N2CC(C(=O)N3CCC(C(=O)NCCCOC(C)C)CC3)CC2=O)cc1` (stereo not shown) was tested, and the “hERG current change (%, negative = inhibition) at 1uM” value was 10.9%.
In the case of `CCCCNC(=O)n1c(SC)nc2ccccc21`, the “hERG current change (%, negative = inhibition) at 1uM” value is reported as 9.24%.
With `Cc1ccc(NC(=O)CN(C)S(=O)(=O)c2cccc3nsnc23)cc1Cl` the “hERG current change (%, negative = inhibition) at 1uM” value was 11.3%.
